Patent US11180452B2, “Methods and compositions for selectively inhibiting pathogenic microbes” (priority 2019, dated 2021)
Converted amounts (≈) assume the structure as drawn. Where two headings read alike, the source gives them in different places.

System: Francisella tularensis strains
Experiment: microbe, parasite or virus in culture
Assay type: cell-based

Brc1ccc2[nH]cc(Sc3ccccc3Br)c2c1 [Compound 174I, 5-bromo-3-((2-bromophenyl)thio)-1H-indole]
MIC (read-out: F. tularensis BSL-3 MIC, Strain 100): 8 mg/L (≈ 20.9 µM)
MIC (read-out: F. tularensis BSL-3 MIC, strain HN-63): 4 mg/L (≈ 10.4 µM)
MIC (read-out: F. tularensis BSL-3 MIC, strain LVS): 2 mg/L (≈ 5.22 µM)
MIC (read-out: F. tularensis BSL-3 MIC, strain MA00-2987): 1.33 mg/L (≈ 3.47 µM)
MIC (read-out: F. tularensis BSL-3 MIC, strain MO #1): 2 mg/L (≈ 5.22 µM)
MIC (read-out: F. tularensis BSL-3 MIC, strain MO #2): 1 mg/L (≈ 2.61 µM)
MIC (read-out: F. tularensis BSL-3 MIC, strain MO #3): 2 mg/L (≈ 5.22 µM)
MIC (read-out: F. tularensis BSL-3 MIC, strain OR-96): 4 mg/L (≈ 10.4 µM)
MIC (read-out: F. tularensis BSL-3 MIC, strain SCHU S4): 8 mg/L (≈ 20.9 µM)
MIC (read-out: F. tularensis BSL-3 MIC, strain WY-96): 2 mg/L (≈ 5.22 µM)
